Measured values published in publication PMC6919601, “Identification of Plasmodium dipeptidyl aminopeptidase allosteric inhibitors by high throughput screening” (PLoS ONE, 2019).
Out of some 110,000 compounds screened, about 230 (0.21%) showed an effect of 50% or more. Some of the results follow.

Target: DPAP1 (Plasmodium falciparum, UniProt Q8IIJ9)
Assay: primary screen, percent inhibition; read by cleavage of a fluorogenic dipeptide substrate; higher = more effect of the substance
Design: species or system P. falciparum D10 trophozoite lysates; single well
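Also: 30 min substrate incubation versus DMSO and 10 µM JCP410 controls.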

DPAP1, sequence (Q8IIJ9 whole entry, looked up): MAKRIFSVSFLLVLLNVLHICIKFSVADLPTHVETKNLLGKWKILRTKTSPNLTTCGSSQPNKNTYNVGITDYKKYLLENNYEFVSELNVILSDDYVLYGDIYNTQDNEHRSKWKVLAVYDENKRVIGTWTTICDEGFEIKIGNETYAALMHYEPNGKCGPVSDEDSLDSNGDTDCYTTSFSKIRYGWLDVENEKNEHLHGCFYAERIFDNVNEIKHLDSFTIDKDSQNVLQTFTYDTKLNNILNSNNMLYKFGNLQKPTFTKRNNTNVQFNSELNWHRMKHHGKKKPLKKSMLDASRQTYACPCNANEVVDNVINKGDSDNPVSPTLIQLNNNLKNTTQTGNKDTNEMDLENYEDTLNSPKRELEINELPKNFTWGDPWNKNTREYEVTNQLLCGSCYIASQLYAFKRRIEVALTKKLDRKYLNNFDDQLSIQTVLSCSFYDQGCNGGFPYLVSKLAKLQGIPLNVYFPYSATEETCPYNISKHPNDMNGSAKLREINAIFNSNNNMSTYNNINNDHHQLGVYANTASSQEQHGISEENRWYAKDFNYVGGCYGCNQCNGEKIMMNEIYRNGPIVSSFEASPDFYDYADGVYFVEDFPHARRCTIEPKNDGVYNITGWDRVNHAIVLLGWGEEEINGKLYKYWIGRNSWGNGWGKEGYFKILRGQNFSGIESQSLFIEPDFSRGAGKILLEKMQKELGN

Row | Compound | % Inhibition @ 10 uM [%]
1 | CCOC(=O)c1cnc(-c2ccccc2)nc1-c1ccncc1 | -1.03
2 | CC(=O)N1CCC2(CC1)OC(=O)C(C)=C2C(=O)NCCN(C)C1CCCCC1 | -1.58
3 | Cc1ccc(-c2cc(C(=O)Nc3ccncc3)c3ccccc3n2)o1 | -3.45
4 | Cc1nn(Cc2ccc(Cl)cc2Cl)c(C)c1NC(=O)C1C2CCC(O2)C1C(=O)O (stereo not drawn) | 4.74
5 | Cc1nc(O)c2cnn(-c3ccccc3)c2n1 | -5.32
6 | Cn1cc(C2N3CC4(C)CN2CC(C)(C3)C4O)c2ccccc21 (stereo not drawn) | -1.33
7 | CCOc1ccc(NC(=O)c2cc([N+](=O)[O-])ccc2Cl)c([N+](=O)[O-])c1 | -6.11
8 | COc1cccc(N2C(=O)c3ccccc3C2=O)c1 | 10.6
9 | CCOC(=O)C1=C(C)N=c2s/c(=C\c3sccc3C)c(=O)n2C1c1ccc(OC)c(OC)c1 (stereo not drawn) | 1.52
10 | Cc1sc2nc(-c3ccccc3)nc(O)c2c1C | 3.65
11 | CN(C)c1ccc(NC=C2C(=O)NC(=O)NC2=O)cc1 | 5.32
12 | Cc1cc(N)n(-c2ccccc2C(=O)O)n1 | -2.97
13 | Cc1ccc(/C=C2\C(=N)N3N=C(S(C)(=O)=O)SC3=NC2=O)cc1 | -1.58
14 | C=CCOc1ccc(C=C2C(=O)N(C)C(=O)N(C)C2=O)cc1OCC | -1.93
15 | CCCCN(CCNC(=O)Cn1ncc2c3ccccc3n(CCC)c2c1=O)Cc1ccco1 | -2.21
16 | Cc1nn(CCCC(=O)N2CCN(c3ccccn3)CC2)c(=O)c2c1sc1ccccc12 | -4.93
17 | COc1ccc2nc(NC(=O)C(NS(=O)(=O)c3cccs3)c3ccccc3)sc2c1 (stereo not drawn) | -2.65
18 | O=C(O)CCCNC1=C(Cl)C(=O)c2ccccc2C1=O | -2.14
19 | CN(C)CCC(O)(c1ccccc1)c1ccccc1 | 0.00784
20 | COc1ccc(NC(=O)c2cccs2)c(OC)c1 | -1.62
21 | Cc1nn(CC(=O)NCCCN2CC(C)CC(C)C2)c(=O)c2c1sc1ccccc12 (stereo not drawn) | -5.61
22 | COc1ccc(C2N(C(=O)CN3CCOCC3)CCN2S(=O)(=O)c2ccc(C)cc2)cc1 (stereo not drawn) | -0.425
23 | CCc1cc2c(cc3c(=O)n(CC(=O)NCc4ccccc4OC)nc(CC)n32)s1 | -1.7
24 | COc1ccc(-c2nn3c(C(F)(F)F)nnc3s2)cc1OC | -1.29
25 | CCn1c(=N)n(CC(O)COc2ccc(Cl)cc2)c2ccccc21 (stereo not drawn) | -3.39
26 | CN1C(=O)NC(c2ccc(O)cc2)C2=C1CN(Cc1ccco1)C2=O (stereo not drawn) | 0.9
27 | COc1cc(NC(=O)C23CC4CC(C2)CC(n2cnc(Br)n2)(C4)C3)cc(OC)c1OC | 3.57
